# Source: PubChem BioAssay AID485281 (National Center for Advancing Translational Sciences (NCATS), 2010)
# Out of some 350,000 compounds screened, about 260 (0.074%) were called active. The shares of active, inactive and inconclusive entries below differ from those in the screen. The call rests on the fitted dose curve; in most records, active means well fitted inhibition curve with a large enough effect; inconclusive means small, poorly fitted or top-dose-only effect; inactive means no such curve, though single readings can be large or run the other way. Potencies beside an inconclusive call are fits to weak or partial responses and may not hold up.
# Biological target: Ferritin light chain (Equus caballus) (UniProt P02791)
# Chain of UniProt P02791 (P02791 whole entry, looked up): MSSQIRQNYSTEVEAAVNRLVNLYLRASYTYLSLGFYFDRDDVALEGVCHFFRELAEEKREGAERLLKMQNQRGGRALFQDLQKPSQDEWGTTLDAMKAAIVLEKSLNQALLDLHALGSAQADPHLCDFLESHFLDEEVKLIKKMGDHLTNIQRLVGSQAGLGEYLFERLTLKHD
# Assay: qHTS Assay for Identification of Novel General Anesthetics; further: nearly all actives have a fitted effect of over 20% in size
# Conditions: apoferritin/1-aminoanthracene competitive binding, fluorescence; activity change, negative = displacement: at 77.5 µM (top of the series)
# How it was run: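 In PBS, apoferritin at 10 uM is loaded with 1-AMA from a 50% saturated solution. After 10 min of compound exposure at ambient temperature, reduced 535 nm fluorescence indicates probe displacement.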
# On the % scale 0 is the no-effect control and ±100 the full control effect; potency means the concentration at half of the fitted maximal effect; tags describe the fitted curve by direction and shape.
Structure (SMILES),Potency,"activity change, negative = displacement"
COc1ccccc1CNC(=O)CCC1N=C2c3ccccc3N=C(SCc3ccc(Cl)cc3)N2C1=O (stereo not drawn),"inconclusive: 5.62 µM [inhibitor, full curve, poor fit]",–
C=CCSC1=N/C(=C\c2cc(OCC)c(OC(C)=O)c([N+](=O)[O-])c2)C(=O)S1,–,inactive: -4.51%
CC(C)(C)c1ccc(C(=O)NNc2cc(N3CCOCC3)nc(N3CCOCC3)n2)cc1,"inconclusive: 14.1 µM [inhibitor, partial curve]",–
O=C(c1ccc(S(=O)(=O)c2cccc(Cl)c2)c([N+](=O)[O-])c1)N1CCN(c2ccccn2)CC1,"inconclusive: 11.2 µM [inhibitor, partial curve]",–
COc1ccc(C(=O)/C=C/C(=O)N(Cc2ccccc2OC)C(C(=O)NC2CCCCC2)c2ccncc2)c(O)c1 (stereo not drawn),"inconclusive: 28.2 µM [inhibitor, partial curve]",–
CC1(C(=O)NCCOc2ccccc2Cl)CC1(Cl)Cl (stereo not drawn),"inconclusive: 39.8 µM [inhibitor, single point]",–
CC(=O)/C=C\c1cn(-c2ncc(C(F)(F)F)cc2Cl)c2ccccc12,–,inactive: -13.2%
CC(C)CC(C(=O)OCC(=O)c1c(N)n(C)c(=O)n(C)c1=O)N1C(=O)c2ccccc2C1=O (stereo not drawn),"inconclusive: 12.6 µM [inhibitor, partial curve]",–
O=C(Nc1cc2c(oc1=O)CCCC2=O)c1cccc(Cl)c1,"inconclusive: 39.8 µM [inhibitor, single point]",–
O=S(=O)(Nc1ccc(N2CCCCC2)cc1)c1ccccc1F,"inconclusive: 17.8 µM [inhibitor, partial curve]",–
CC(=O)N1CCc2cc(CNC(=O)Nc3ccc(Br)c(C)c3)ccc21,"inconclusive: 56.2 µM [inhibitor, single point]",–
CCc1ccccc1N(C)S(=O)(=O)c1ccc2c(c1)C(C)(C)C(=O)N2C,"inconclusive: 14.1 µM [inhibitor, partial curve]",–
CC1CCCN(C(=O)Nc2cccc(NC(=O)N3CCCC(C)C3C)c2)C1C (stereo not drawn),"inconclusive: 28.2 µM [inhibitor, partial curve]",–
O=C(c1ccc(COc2ccc(Cl)cc2)cc1)N1CCCCC1,"inconclusive: 56.2 µM [inhibitor, single point]",–
COc1ccccc1-c1cc(C(=O)N2CCc3ccccc3C2)c2ccccc2n1,"inconclusive: 8.91 µM [inhibitor, partial curve]",–
O=C(CC(=O)N/N=C/c1c(F)cccc1Cl)NCCc1ccccc1,"inconclusive: 22.4 µM [inhibitor, partial curve]",–
COc1cc(CNCc2ccco2)ccc1OCc1ccccc1,"inconclusive: 28.2 µM [inhibitor, partial curve]",–
Cc1ccc(C(=O)COC(=O)C(C)N2C(=O)C3C4C=CC(C4)C3C2=O)cc1C (stereo not drawn),"inconclusive: 31.6 µM [inhibitor, partial curve]",–
Cc1cccc(C)c1OCCCCc1c(C)n[nH]c1C,"inconclusive: 14.1 µM [inhibitor, partial curve]",–
Cc1ccc(Cn2nc(C)c(NC(=O)c3noc4c3CCCCC4)c2C)cc1,"inconclusive: 20 µM [inhibitor, partial curve]",–
CC(C)(C)N(Cc1ccccc1)C(=O)c1ccc(Br)o1,"inconclusive: 31.6 µM [inhibitor, partial curve]",–

Structure (SMILES),Potency,"activity change, negative = displacement"
Cc1ccc(SCC(=O)NN2C(=O)c3ccccc3C2=O)cc1,"inconclusive: 31.6 µM [inhibitor, partial curve]",–
Cc1cc(NS(=O)(=O)c2ccc(Nc3nc(-c4ccc(C)c(C)c4)cs3)cc2)no1,"inconclusive: 20 µM [inhibitor, partial curve]",–
O=C(NCCc1ccccc1)c1ccc(Cl)c([N+](=O)[O-])c1,"inconclusive: 25.1 µM [inhibitor, partial curve]",–
O=C1CC(=O)N(CCNc2ncc(C(F)(F)F)cc2Cl)C(=O)N1,"inconclusive: 44.7 µM [inhibitor, single point]",–
Cc1cccc(OCC(=O)Nc2ccc3c(C)cc(=O)oc3c2)c1,–,inactive: 7.31%
CCn1c(=O)c(CCC(=O)N2CCN(c3ccccn3)CC2)c(C)c2c(C)nn(-c3cccc(C)c3)c21,–,inactive: -0.364%
CCC(Sc1ncnc2sc(C)c(C)c12)C(=O)OC (stereo not drawn),"inconclusive: 44.7 µM [inhibitor, single point]",–
CC[n+]1c(/C=C2\Sc3ccccc3N2C)ccc2cccc(C)c21,"inconclusive: 35.5 µM [inhibitor, partial curve]",–
CN(C)CCCNc1ccc(-c2n[nH]c(=O)c3ccccc23)cc1[N+](=O)[O-],"inconclusive: 31.6 µM [inhibitor, partial curve]",–
N#CC(c1ccccc1)c1ccc(C(=O)c2ccc(F)cc2)cc1 (stereo not drawn),"inconclusive: 39.8 µM [inhibitor, partial curve]",–
COc1cc(CNCc2cccs2)ccc1OCc1cccs1,"inconclusive: 22.4 µM [inhibitor, partial curve]",–
CC(COc1ccccc1)N(CCCl)Cc1ccccc1 (stereo not drawn),inactive,–
Cc1cc(Br)ccc1NC(=O)CSc1c2c(nc3ccccc13)CCC2,"inconclusive: 14.1 µM [inhibitor, partial curve]",–
Clc1ccccc1CSc1nnc(-c2ccccn2)n1Cc1ccco1,"inconclusive: 25.1 µM [inhibitor, partial curve]",–
Cc1nc(N)sc1-c1csc(NCc2ccccc2)n1,"inconclusive: 20 µM [inhibitor, partial curve]",–
O=C(CCc1ccccc1)Nc1ccccc1,"inconclusive: 35.5 µM [inhibitor, partial curve]",–
O=c1[nH]n(Cc2ccccc2)c(=O)c2ccccc12,"inconclusive: 28.2 µM [inhibitor, partial curve]",–
CCCCC(CC)CNC(=O)Cc1ccc(-n2c(=O)[nH]c3ccccc3c2=O)cc1 (stereo not drawn),"inconclusive: 35.5 µM [inhibitor, partial curve]",–
O=C(Nc1ccc(S(=O)(=O)N2CCOCC2)cc1)c1ccc(CN2CCc3ccccc3C2)cc1,"inconclusive: 5.62 µM [inhibitor, partial curve]",–
CSC(=S)N/N=C(\C)c1ccc(Br)cc1,"inconclusive: 20 µM [inhibitor, partial curve]",–
C/C(=N\Nc1ccccn1)c1cccs1,"inconclusive: 28.2 µM [inhibitor, partial curve]",–

Structure (SMILES),Potency,"activity change, negative = displacement"
Cc1ccc(NC(=O)CN2C(=O)NC3(CCCc4ccccc43)C2=O)c([N+](=O)[O-])c1 (stereo not drawn),"inconclusive: 28.2 µM [inhibitor, single point]",–
O=C(Nc1ccc(Br)cc1)c1cnccn1,–,inactive: -14.5%
O=C(c1cccc(F)c1)N1CCN(c2ccc([N+](=O)[O-])c(N3CCCCC3)c2)CC1,"inconclusive: 17.8 µM [inhibitor, partial curve]",–
CC#CCCCC(=O)Nc1ccc(C(=O)O)cc1,–,inactive: -11.1%
Cc1c(CCNC(=O)c2ccc(C(C)(C)C)cc2)sc2nc(-c3ccc(F)cc3)nn12,"inconclusive: 7.08 µM [inhibitor, full curve, poor fit]",–
COc1ccc(OC)c2[nH]c(=O)c(CCNC(=O)c3ccc(S(=O)(=O)N4CCCC4)cc3)cc12,"inconclusive: 35.5 µM [inhibitor, partial curve]",–
Cc1ccc2nc(SCc3nc(-c4ccc(Cl)cc4)no3)[nH]c2c1,"inconclusive: 11.2 µM [inhibitor, partial curve]",–
CC(C)CNC(=O)CC(=O)N/N=C/c1ccc(Br)cc1,"inconclusive: 8.91 µM [inhibitor, partial curve]",–
Cc1cc(C)cc(NS(=O)(=O)c2ccc(NC(=S)Nc3ccccc3)cc2)c1,"inconclusive: 44.7 µM [inhibitor, single point]",–
CCCCOc1ccc(CSc2ncn[nH]2)cc1,"inconclusive: 31.6 µM [inhibitor, partial curve]",–
Cc1cc(C)c2nc(N3C(=O)C(O)=C(C(=O)c4ccco4)C3c3ccco3)sc2c1 (stereo not drawn),"inconclusive: 50.1 µM [inhibitor, single point]",–
Cc1ccc(OCc2nc(-c3ccccc3)no2)cc1,–,inactive: -3.99%
COc1ccccc1/C=N/NC(=O)CC(=O)NC1CCCCC1,"inconclusive: 3.98 µM [inhibitor, full curve]",–
CCc1cccc(NC(=O)CCCn2nc(CC)n3c(cc4occc43)c2=O)c1,"inconclusive: 15.8 µM [inhibitor, partial curve]",–
Cc1ccc2c(c1)c1c(c(=O)n(-c3ccccc3)c(=O)n1Cc1ccccc1C)n2C,–,inactive: 6.36%
N#CC1=C(SCc2ccccc2)NC2=C(C(=O)CCC2)C1c1ccc2c(c1)OCO2 (stereo not drawn),"inconclusive: 8.91 µM [inhibitor, partial curve]",–
O=C(Cc1ccc(Cl)cc1)Nc1ccc(SC(F)F)cc1,"inconclusive: 31.6 µM [inhibitor, single point]",–
Cc1ccc2c(=O)cc(C(=O)N(Cc3ccc(C(C)(C)C)cc3)C3CCS(=O)(=O)C3)oc2c1 (stereo not drawn),"inconclusive: 10 µM [inhibitor, partial curve]",–
CCc1nnc(NC(=O)CSc2nnc(-c3ccccc3O)n2-c2ccc(C)cc2C)s1,"inconclusive: 3.55 µM [inhibitor, partial curve]",–
FC(F)(F)c1ccc(Cl)c(N/N=C/c2ccc(N3CCOCC3)s2)c1,"inconclusive: 31.6 µM [inhibitor, partial curve]",–
Cc1ccc(C(=O)COC(=O)CCC(=O)Nc2ccc(Oc3ccccc3)cc2)cc1,"inconclusive: 17.8 µM [inhibitor, partial curve]",–
